The whole screen tested about 46,000 compounds, of which about 60 (0.1%) were called active. Not shown: some 3% with an inconclusive outcome. The call rests on the fitted dose curve; in most records, active means well fitted inhibition curve with a large enough effect; inconclusive means small, poorly fitted or top-dose-only effect; inactive means no such curve, though single readings can be large or run the other way. This is one part of the list.
Assay: Primary qHTS assay for Inhibitors of ovarian cancer metastasis using an organotypic tumor microenvironment (TME) model. Further: nearly all actives have a fitted effect of over 65% in size.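 On activity change, negative = inhibition: plate controls were DMSO wells for no effect and tomatine positive control wells for full effect.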
Conditions: SKOV3ip1-GFP adhesion/invasion on 3D omental model, fluorescence; series mostly up to 45.8 µM; activity change, negative = inhibition: at the top concentration
Outline: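 qHTS, 4-pt dose (0.36-46 umol/L); SKOV3ip1-GFP, 1,200 cells/well, no FBS; primary omental fibroblast/mesothelial co-culture 48 h pre-grown; 2 h RT + 16 h 37 C; PBS wash, 4% PFA; GFP count 488/509 nm.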

Activity change, negative = inhibition, inactive:
COc1cc(C2C(C(=O)Nc3ccccc3C)=C(C)Nc3nc(SCc4cc(C)ccc4C)nn32)ccc1O (configuration not stated) -12.8%
Cc1ccc(-n2nnnc2CNC(=O)C2CC(=O)N(c3ccccc3)C2)cc1C (configuration not stated) 10.3%
Cc1ccc(Cl)cc1N1CCN(C(=O)c2noc3c2CCCC3)CC1 0.214%
CCOC(=O)c1cc2c(=O)n3ccccc3nc2n(Cc2ccco2)c1=NC(=O)c1cccc(Br)c1 -14%
CCc1ccc(CN(Cc2ccco2)C(=O)c2cc(-c3ccc(C)c(F)c3)on2)cc1 6.88%
CCOc1ccc(NC(=O)Cn2cc(C(=O)c3ccc(C)cc3)c(=O)c3cc4c(cc32)OCO4)cc1 -4.31%
CCOCCc1nn2c(=O)cc(COC(=O)c3ccccc3NC(=O)c3ccc(C)cc3)nc2s1 -3.45%
CCn1cc2nc(SCC(=O)Nc3ccc(OC)cc3OC)n(Cc3ccc(Cl)cc3)c(=O)c2n1 8.48%
CCCCN(C)c1nnc(NC(=O)Nc2ccc(Br)c(C)c2)s1 2.21%
Nc1cc(C(Cl)=C(Cl)Cl)c(S(N)(=O)=O)cc1S(N)(=O)=O -6.5%
Fc1ccccc1N1CCN(c2ncnc3c2nc2n3CCCC2)CC1 0.511%
Cc1ccc(F)cc1S(=O)(=O)N1CCC(c2nc3ccccc3s2)CC1 16.9%
CCCn1c(=O)c2sccc2n2c(CCCC(=O)NC3CCCCC3)nnc12 -17%
O=C(CNS(=O)(=O)c1cccs1)N1CCN(c2ccccc2F)CC1 29.2%
Cc1ccc2nc3c(c(Nc4ccc(C)c(C)c4)c2c1)CCC3 -14.1%
Brc1cccc(-c2nnn3c2nc(N2CCCCC2)c2ccccc23)c1 9.35%
CCn1c2c(c(=O)n3ncc(C(=O)Nc4ccc(Cl)cc4C)c13)CN(Cc1ccc(OC)cc1)CC2 5.66%
Cc1ccccc1Nc1c(-c2c[nH]c3ccccc23)nc2cccc(C)n12 -7.35%
COc1ccc(C2C=C(c3ccc(Cl)cc3)Nc3nc(NC(=O)CCC(=O)O)nn32)cc1 (configuration not stated) -2.58%
Cc1ccccc1Cn1c(C)c(CNCCCc2ccccc2)c(C(=O)O)c1C 0.925%
O=C(Nc1ccc(F)cc1Cl)c1cnc(N2CCOCC2)c2ccccc12 -9.94%
CCCOc1cccc(C(=O)N2CCCCC2CCN2CCCCC2)c1 (configuration not stated) 4.47%
Cc1ccc(N(Cc2cccs2)C(=O)c2ccccc2[N+](=O)[O-])cc1 -12.7%
COc1ccc(-c2csc3nc(-c4ccc(C)cc4)oc(=O)c23)cc1OC -1.69%
O=c1c2sc3ccccc3c2n(Cc2ccc(Cl)cc2)c(=O)n1Cc1ccco1 11%
COc1ccc(CNC(=O)CC2Oc3ccc(C)cc3NC2=O)cc1 (configuration not stated) -2.67%
Cc1ccccc1NC(=O)CCn1nc(-c2ccc(Cl)cc2)c2ccccc2c1=O -19%
Cc1cccc(Cn2c(CN3CCCC(C)C3)nc3c2c(=O)n(C)c(=O)n3C)c1 (configuration not stated) 0.746%
COc1ccc(CCNc2nc(SCc3cccc(Cl)c3)nc3ccccc23)cc1OC -2.4%
CCOc1ccc(CCNC(=O)c2nn(C)c3c2CSc2ccc(C)cc2-3)cc1OCC 5.97%
COC(=O)c1cc2oc3ccccc3c2n1CC(=O)Nc1ccc(F)c(Cl)c1 -9.09%
COc1cccc(CC(=O)Nc2ccc3nc(Nc4cccc(C(F)(F)F)c4)cc(C)c3c2)c1 -2.12%
Cc1ccc(S(=O)(=O)N2CCc3cc(C(=O)Nc4c(C)cccc4C(C)C)ccc32)cc1 10.4%
Cc1ccc(Cl)cc1NC(=O)Cn1c(SCC(=O)NCc2ccccc2)nc2ccccc21 0.146%
CCc1nonc1NC(=O)c1oc2ccc(Cl)cc2c1C -10.7%
CCOC(=O)c1cc(OC(=O)c2cc(OC)cc(OC)c2)n(-c2ccccc2)n1 -3.06%
Clc1ccc2nc(-c3cccs3)c(Nc3ccc4c(c3)OCCO4)n2c1 5.63%
COCCCNC(=O)c1ccc(-n2c(-c3ccccc3)cc3c2CCCCC3)cc1 -28.7%
O=C(NCc1ccccc1)c1nc(-c2ccc(Cl)cc2)n2c1CCCCC2 3.29%
CC1Cc2cc(S(=O)(=O)NCc3ccccc3)ccc2N1C(=O)C1CCC1 (configuration not stated) -18.7%
O=C(Cn1c(-c2cccs2)cc2cc(Cl)ccc21)N1CCCCC1 9%
CN1CCN(c2c(F)cc3c(=O)c(C(=O)O)cn(CCF)c3c2F)CC1 -13.7%
Cc1ccc2c(c1)c1c(c(=O)n(-c3ccccc3)c(=O)n1CC(=O)c1ccc(Cl)cc1)n2C -6.58%
Cc1ccc2nc(/C(C#N)=C/c3ccc(-c4ccc(C(=O)OC(C)C)cc4)o3)[nH]c2c1 -20.1%
Cn1c(=O)n(C)c2cc(N3CCOCC3)c(NS(=O)(=O)c3ccc(F)cc3)cc21 6.16%
O=C1CN(C(=O)c2c(F)cccc2Cl)C(c2ccc(F)cc2)c2cc(Br)ccc2N1 (configuration not stated) -2.69%
Fc1ccc(-c2nnn3c2nc(NCc2ccccc2)c2ccccc23)cc1 -14.9%
Cc1ccc(CN2C(=O)CN(C3CCCCCC3)C(=O)C2c2ccc(F)cc2)cc1 (configuration not stated) -0.0092%
COC(=O)c1cccc(CN2C(=O)SC(Nc3ccccc3C)C2=O)c1 (configuration not stated) -5.3%
CCOc1ccc(NC(=O)CSc2nccn2C2CCCC2)cc1 -3.92%
CN(C(=O)CSc1nc2ccc(NC(=O)c3cccs3)cc2s1)c1ccccc1 3.5%
O=C(Cn1nnc(-c2cccc(C(F)(F)F)c2)n1)NCc1ccc(F)cc1 -19.8%
COc1ccc(C(=O)Nc2nc(-c3nnn(-c4cc(OC)ccc4OC)c3C)ns2)cc1 -18.3%
CC(C)CCNC(=O)Cn1cc(S(=O)(=O)Cc2ccc(F)cc2)c2ccccc21 -8.81%
Cc1c(C(=O)Oc2ccc(Br)cc2)sc2ncn(Cc3ccccc3F)c(=O)c12 1.86%
Cc1ccc(NC(=O)C(=O)NCC(c2ccc3c(c2)OCO3)N2CCN(C)CC2)cc1C (configuration not stated) -19.1%
COc1ccc(-c2cc(C(=O)NCc3ccc(C)cc3)c3cc(C(C)C)ccc3n2)cc1 6.02%
Cc1cc(S(=O)(=O)NCCc2csc(-c3cccc(F)c3)n2)ccc1F 7.03%
CCCC(=O)OC1=C(C(C)=O)N(Cc2ccccc2)S(=O)(=O)c2ccccc21 2.02%
CC(=O)N1c2ccc(S(=O)(=O)NCC3CCC(C(=O)Nc4cccc(C)c4)CC3)cc2CC1C (configuration not stated) 5.65%
COc1cccc2cc(-c3nc4ccc(C)cc4[nH]3)c(=O)oc12 -11.3%
O=C(NCCCN1CCN(c2ccccc2F)CC1)c1sc2ncccc2c1-n1cccc1 -13.7%
O=C1CCSC2(C(=O)N(Cc3ccccc3)c3ccccc32)N1c1ccccc1 (configuration not stated) -4.96%
CCCCOc1ccc(S(=O)(=O)n2nc(C)c(S(=O)(=O)N3CCCCCC3)c2C)cc1 -9.04%
O=C(CCS(=O)(=O)c1cc2c(cc1Cl)NC(=O)CO2)NCc1ccccc1 -17.5%
CCc1ccc2nc(N3CCC(C(=O)NCCC(C)C)CC3)sc2c1 -4.29%
CCN(Cc1ccccc1)S(=O)(=O)c1ccc(N2CCCCS2(=O)=O)cc1 -14%
CCc1cccc(C)c1NC(=O)c1cc2ccccc2o1 -8.67%
O=C(NCc1ccccc1)c1ccc(CSc2nc3cccnc3n2Cc2ccccc2)cc1 1.77%
Cn1cc(S(=O)(=O)c2ccccc2)c(=O)c2cc(F)c(N3CCCC3)cc21 21.4%
CC(=O)OCC(CCn1cnc2cnc(N)nc21)COC(C)=O 2.98%
COc1ccc(CCNC(=O)c2cc3c(=O)n4ccccc4nc3n2C)cc1 2.52%
NNc1nncc2ccccc12 -1.19%
CCC(=O)N1CCc2cc(Br)cc(S(=O)(=O)N3CCC(C(=O)Nc4cccc(C)c4)CC3)c21 2.58%
CCC(Cn1nnc2ccccc2c1=O)NC(=O)Nc1cc(OC)cc(OC)c1 (configuration not stated) 2.46%
CCc1ccc(NC(=O)CSC2=Nc3ccccc3C3=NC(CC(=O)NCc4cccs4)C(=O)N23)cc1 (configuration not stated) -6.86%
COc1ccc(NC(=O)Cn2cc(S(=O)(=O)c3ccccc3)c(=O)c3cc(C)ccc32)cc1Cl -7.25%

outcome, inactive:
COc1ccc(Cl)cc1NC(=O)Cn1nnc2sc(-c3ccccc3)cc2c1=O
COc1ccc(CCNC(=O)CCCCn2c(=O)c3ccccc3n(Cc3ccccc3)c2=O)cc1OC
CCC(C)NC(=O)Cn1c(=O)c2cccn2c2ccc(F)cc21 (configuration not stated)
COc1cccc(CNC(=O)c2cc(=O)[nH]c3ccc(S(=O)(=O)N4CCCC4)cc23)c1
CCOC(=O)c1c(NC(=O)CSc2cn(CCNC(=O)c3ccc(OCC)cc3)c3ccccc23)sc2c1CCC2
CC1=C(C(=O)OC2CCCCCC2)C(c2ccc(Cl)cc2Cl)CC(=O)N1 (configuration not stated)
Cc1ccc(NC(=O)C2CCCN(S(=O)(=O)c3ccc4c(c3)CCCC(=O)N4)C2)cc1N(C)C (configuration not stated)
Cc1ccc(C)c(NC(=O)Cn2c(=O)n(CCCS(=O)(=O)C3CCCCC3)c(=O)c3ccccc32)c1
COc1ccc(Cl)cc1C(=O)NCC(c1ccc(N(C)C)cc1)N1CCCC1 (configuration not stated)
Cc1ccc(-c2ccc(CCC(=O)O)n2-c2ccc(C)c(Cl)c2)cc1
CCOc1cc(C(=O)Nc2ccc(-c3nnc4n3CCCCC4)cc2)cc(OCC)c1OCC
COc1ccc(-n2c(=O)c3c4c(sc3n(CC(=O)C(C)(C)C)c2=O)CCCC4)c(OC)c1
CCc1ccc(CNC(=O)C2CCN(C(=O)c3ccc(-n4c(C)cc5ccccc54)s3)CC2)cc1
CCc1ccc(CNC(=O)c2cc3cc4ccc(OC)cc4nc3o2)cc1
Cc1ccc(OCc2cc(=O)n3c(-c4ccccc4)csc3n2)cc1
CCN(CC)S(=O)(=O)c1ccc2c(c1)c(=O)c(C(=O)N1CCN(c3ccccc3OC)CC1)cn2C
COc1cc(NC(=O)Nc2c[nH]c(=O)[nH]c2=O)cc(OC)c1OC
CCCCNC(=O)c1cnc2c(-c3ccc(OCC)c(OCC)c3)c(C)nn2c1-c1ccccc1
Cc1cc2c(cc3c(SCc4cccc(Cl)c4)nnc(C)n32)o1
COc1cccc(N2CCN(C(=O)c3ccc4c(Cl)c5c(nc4c3)CCCC5)CC2)c1

— PubChem BioAssay AID1963576 (National Center for Advancing Translational Sciences (NCATS), 2024)
